Values marked as one replicate rest on one cluster of the flow cell; about a third of the high ones do not repeat.
Tested on: ATP
Assay: switch fluorescence ratio, 500 uM ATP over buffer (Cy3 cluster intensity, sum of 5 cycles each) (fold (ratio)); higher = stronger signal-on switching upon ATP binding; sequences stand for … in TCGTCGGCAGCGTCAGATGTGTATAAGAGACAGTTTTTTTTTTTTTTTTTTTTTTTTT…TC
Settings: aptamer strand: ATP DNA aptamer (quencher-CACCTGGGGGAGTATTGCGGAGGAAGG + anchor), 100 nM annealed; ATP concentration: 500 uM; one replicate
Method in brief: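 Exposure to 500 uM ATP lasted 15 min at 22 °C before imaging, and a selection-buffer image was taken beforehand, for Cy3-labelled switching-strand clusters on a modified Illumina MiSeq flow-cell annealed to 100 nM quencher-labelled ATP aptamer. Five buffer/ATP cycles were run with NaOH stripping and re-annealing between them. The fluorescence ratio per cluster is summed target-cycle over summed buffer-cycle Cy3 intensity, averaged per switch-domain sequence. Clusters outside 100-1000 RFU were excluded.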

| Sequence | switch fluorescence ratio |
| --- | --- |
| GGTACTTGG | 1.03 |
| AAATCCAAGC | 1.09 |
| ACTGCAGTTC | 1.01 |
| AACGATATGA | 1.04 |
| GATAAGAAAT | 1.02 |
| TCATCGCCGG | 1 |
| CCTGCTCAGT | 1.16 |
| TATTCCACCT | 1.01 |
| GAAATCCAAA | 0.993 |
| CTTTCGGACC | 0.99 |
| CGTATGTGTA | 0.99 |
| AGCTTGTGGC | 0.971 |
| AGACCGGAA | 1.15 |
| TTTCTATTC | 1 |
| GGATACTCTT | 1 |
| TTGCATCAAC | 1.05 |
| TCCGTGCACG | 0.961 |
| GTTGCGGCTG | 0.948 |
| ATCAGCAAGG | 1.25 |
| ATTTTGTGAA | 0.967 |
| CACAGGACTG | 1.01 |
| ATAGCCCGGC | 1.01 |
| GTGTGGTTAT | 1.02 |

| Sequence | switch fluorescence ratio |
| --- | --- |
| GGGATGGCTC | 0.976 |
| TTCTCATTG | 0.995 |
| ATAGTTTCAG | 1.01 |
| TGAGTGGGT | 0.97 |
| ACGTGGGCTG | 1.07 |
| AACCGTCCCC | 2 |
| TTCCTGGTG | 2.22 |
| CGGTTTCCTA | 0.997 |
| AATATTAATT | 1.01 |
| TCCGTTAGCC | 1.72 |
| TGGGTCGCT | 0.997 |
| AAGGGTAGCT | 1.01 |
| GAATCGTTGG | 0.973 |
| TAATCGTTT | 1 |
| TGCGATTGGC | 0.969 |
| CATTATATTT | 1.05 |
| GACTGGTAGT | 0.988 |
| TAAGCCTTCA | 2.24 |
| AGATTCCTCG | 1.11 |
| GGGAGCTTTC | 1.05 |
| GTTAGAATGA | 1 |
| TATAGTCCC | 1.04 |
| AAACTCGCTG | 1.06 |

| Sequence | switch fluorescence ratio |
| --- | --- |
| AAAGTACACC | 1.47 |
| CAGAATTCGC | 0.977 |
| TCTCGGAATG | 1.06 |
| GTGCGTATGA | 0.983 |
| TAATTTTACA | 1.01 |
| TTTTAGCAGG | 1.02 |
| TGCGACGAGT | 0.986 |
| GCATAGGGTG | 0.988 |
| TCCCACAGTC | 1.19 |
| TTTAATGAAT | 0.983 |
| CCCCCTCTCC | 1.75 |
| TAACATAATC | 1.02 |
| CGGAGTGGGA | 0.984 |
| AATGCCTGGA | 1.08 |
| CACTAGTTCT | 1.02 |
| ACGGAGGTT | 1.04 |
| ATTAATGAGG | 0.99 |
| GATCTAACT | 0.992 |
| AATTACGAGT | 1.05 |
| TGGGCCTATG | 1 |
| CAGGCTCTTA | 1.02 |
| CGGTAGCCGT | 0.961 |
| GGGAAGCTAG | 0.944 |

| Sequence | switch fluorescence ratio |
| --- | --- |
| GGAGAGCTGG | 0.979 |
| GTTGCATCCC | 1.04 |
| ACGTCGGCTG | 1.07 |
| TCGCCAGTAT | 0.972 |
| TAGTAACTAG | 0.978 |
| AGGATATGTA | 0.94 |
| CCTTGAGAAA | 1.01 |
| CCGTCCCTAC | 4.63 |
| GTCGCCAGCG | 0.988 |
| TAATCGAGCT | 0.995 |
| CTAAGGAGTT | 1.03 |
| GCGTCTTTTC | 1 |
| TGTTCTTTGC | 1.02 |
| TAATATTCGC | 1.05 |
| CCATGGGCGG | 1.09 |
| AACCTTTGAC | 1.24 |
| ATCGCGCGAA | 0.939 |
| ATACCGGCTC | 0.972 |
| AAGGACTGGT | 0.98 |
| GCGGGAACG | 0.989 |
| GCGTCGAGGG | 0.987 |
| CCAGAGCAGG | 1.15 |
| CACCGGAAAT | 1.1 |

| Sequence | switch fluorescence ratio |
| --- | --- |
| GCATGTCGTC | 1.01 |
| CTTTGGATT | 1.03 |
| AGGATAATTC | 1.04 |
| AGCATTTTTA | 0.995 |
| AATGATAGTC | 1.02 |
| TCGGACGCGT | 1.01 |
| ATTCCCGACC | 1.2 |
| ACAGCTGGAA | 1.05 |
| TCTCTTTGGT | 0.997 |
| AGCTTGCTCT | 0.99 |
| TTTAAGAAGC | 1.03 |
| TTCGAGTTGA | 0.994 |
| TACGTAGGAT | 1.07 |
| TCCTCGGGAT | 1.61 |
| GACCCCACTA | 1.21 |
| ATGGATTCTT | 1.01 |
| GCCATCAGGT | 1.02 |
| TAGATCTAGG | 0.995 |
| CCCAACACAG | 1.07 |
| TGTATGCGCT | 1.01 |
| GGTATAAGTC | 1.04 |
| TTGCAGGTTA | 1.01 |
| ATTTGCTCTA | 0.988 |

| Sequence | switch fluorescence ratio |
| --- | --- |
| AAGCATTCCG | 1.09 |
| CTACTGTCTG | 1.01 |
| TGCTTGCCAT | 0.985 |
| ATGCAACGGT | 1.04 |
| GTTGATGGG | 0.977 |
| CGCGAAAGAT | 1.01 |
| AAAACGGCAT | 1.12 |
| TTGTATCGT | 0.95 |
| GACGTTGTCC | 1.03 |
| TGGTAGTCTG | 0.999 |
| GCGGAATCTA | 1.07 |
| GCTTTTTTAT | 1.03 |
| AGCCTTGGAG | 0.981 |
| GAACTTGCAC | 1.12 |
| CAAGTTCTGA | 1.01 |
| CTGTAGCCTA | 1.31 |
| CTCAATGATG | 1.02 |
| AGCTTATTTG | 1.01 |
| GTTGCTCTCG | 0.983 |
| TAAGTATATG | 0.995 |
| CAATGATTAG | 1.02 |
| CATAGTTAGC | 1.05 |
| GGCAGAGAAG | 0.972 |

| Sequence | switch fluorescence ratio |
| --- | --- |
| GGGAGAGACG | 0.915 |
| TGACATATGG | 1.05 |
| GAGGAGAAAC | 0.992 |
| TCATTGATCT | 1 |
| TGAGCAATTG | 1.2 |
| CTTAGTCTAG | 0.988 |
| CGTTAACTT | 1.05 |
| GTCAAATGCG | 1.06 |
| GAGAAAATCC | 1.02 |
| TGAGACTTGG | 0.886 |
| AGGCTGGGCA | 1.01 |
| CTCATAAGCA | 1.05 |
| CGTTCCGATG | 1.43 |
| TATAATCGT | 0.995 |
| GGAATCTCTG | 0.973 |
| GCCCGGGTAC | 1.12 |
| ATCTGGCCGT | 0.974 |
| CGAACCTGCA | 1.96 |
| ATATGCCCAC | 1.05 |
